Variants at the background level are over-represented here.
B1: TPR 5TU (parent)
chain: GGAUCUUCUCGAUCUAACAAAAAAGACAAAUCUGCCACAAAGCUUGAGAGCAUCUUCGGAUGCAGAGGCGGCAGCCUUCGGUGGCGCGAUAGCGCCAACGUUCUCAACUAUGACACGCAAAACGCGUGCUCCGUUGAAUGGAGUUUAUCAUG

Variants of: B1
Experiment: polymerase ribozyme fitness, log enrichment relative to wild type (log ratio); higher = more active; in vitro selection for triplet polymerase activity
Summary of the method: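 Fitness compares each genotype's enrichment to that of the wild type on a logarithmic scale, averaging replicates with inverse-variance weights. The logarithm is base 2. Enrichment came from Illumina sequencing of input and output libraries after one triplicate round of in vitro selection, which included frozen incubation at −7 °C, of PCR-built, transcribed mutant libraries of each subunit of a heterodimeric triplet polymerase ribozyme. Only genotypes with ≥10 input reads and ≥1 read per output were kept.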
With C51U C103G U148G the “polymerase ribozyme fitness (log ratio)” value was no more than -4.2. In the case of A52G G59U G68C C85G A120G G128A C132U U145G, the “polymerase ribozyme fitness (log ratio)” value is reported as no more than -4.2. In the case of C51U A52G A60U A66G C103U A107U C114U C123G G143A, the “polymerase ribozyme fitness (log ratio)” value is reported as no more than -4.2. In the case of C51U U55A U56A G58C U82A A150C, the “polymerase ribozyme fitness (log ratio)” value is reported as no more than -4.2. In the case of G50C C116A G140A, the “polymerase ribozyme fitness (log ratio)” value is reported as no more than -4.2. With A52C C75A C95A C96U C125A the “polymerase ribozyme fitness (log ratio)” value was no more than -4.2. For A52G G84U C96G G140C U148A, the “polymerase ribozyme fitness (log ratio)” value was no more than -4.2. In the case of G50A U90C C96G A115U, the “polymerase ribozyme fitness (log ratio)” value is reported as no more than -4.2. With C51U C85U G140C the “polymerase ribozyme fitness (log ratio)” value was no more than -4.2. For A52C G68C A89C, the “polymerase ribozyme fitness (log ratio)” value was no more than -4.2. With A52G A73C C95A C108A A113C A121G the “polymerase ribozyme fitness (log ratio)” value was no more than -4.2. With G50A G84A U101C G117C U146G the “polymerase ribozyme fitness (log ratio)” value was -0.884. With G50A G83C C93G A97C C132G A137G G140U the “polymerase ribozyme fitness (log ratio)” value was no more than -4.2. With A52C C54G C93G G94U C96G C125G U148G the “polymerase ribozyme fitness (log ratio)” value was no more than -4.2. In the case of C51U A73G G92U G124A, the “polymerase ribozyme fitness (log ratio)” value is reported as -0.37. For G50U G92U A106U A110G U127G, the “polymerase ribozyme fitness (log ratio)” value was no more than -4.2. For G50C G59A U145C, the “polymerase ribozyme fitness (log ratio)” value was -3.51. With G50C C76U C85U C116G the “polymerase ribozyme fitness (log ratio)” value was -2.09. With C51U G80A G86A U127G C131U A137G the “polymerase ribozyme fitness (log ratio)” value was no more than -4.2. With A52C U55C C87U A91C A97G the “polymerase ribozyme fitness (log ratio)” value was no more than -4.2. For G50C C87G C114A A115G, the “polymerase ribozyme fitness (log ratio)” value was no more than -4.2. With A52G A66C the “polymerase ribozyme fitness (log ratio)” value was no more than -4.2. With G50C C85A C95G G117A G140A the “polymerase ribozyme fitness (log ratio)” value was no more than -4.2. With A52C A60G A91G C93G A120G A137U the “polymerase ribozyme fitness (log ratio)” value was no more than -4.2. In the case of G50C C54G G84C C125A, the “polymerase ribozyme fitness (log ratio)” value is reported as no more than -4.2. With C51U G94A the “polymerase ribozyme fitness (log ratio)” value was -1.11. With C51U G94C the “polymerase ribozyme fitness (log ratio)” value was -0.484. For G50C A52C C54U G59U A60C C72A A91U C125A, the “polymerase ribozyme fitness (log ratio)” value was no more than -4.2. For C51U C76U C96U A137U U144C U151A, the “polymerase ribozyme fitness (log ratio)” value was no more than -4.2. In the case of C51G C95U C105U A142C, the “polymerase ribozyme fitness (log ratio)” value is reported as no more than -4.2. In the case of A52G G62A C76A U111G U135G G141C, the “polymerase ribozyme fitness (log ratio)” value is reported as no more than -4.2. For G50U C95G U151A, the “polymerase ribozyme fitness (log ratio)” value was no more than -4.2. In the case of C51U C75G G88A U130A, the “polymerase ribozyme fitness (log ratio)” value is reported as no more than -4.2. With C51A C63U C85A G126A C129A G140A the “polymerase ribozyme fitness (log ratio)” value was no more than -4.2. With C51U A60G C87A U135A the “polymerase ribozyme fitness (log ratio)” value was no more than -4.2. In the case of A52C G86C, the “polymerase ribozyme fitness (log ratio)” value is reported as -4.07. For A52C G86A, the “polymerase ribozyme fitness (log ratio)” value was -1.2. With G50C C85G the “polymerase ribozyme fitness (log ratio)” value was no more than -4.2. For C51U C69A C72U C96A C129G C149G, the “polymerase ribozyme fitness (log ratio)” value was no more than -4.2. For C51U U53A C93A G124U, the “polymerase ribozyme fitness (log ratio)” value was -3.59. With A52G C87U C93U C131A G136A G143C U145G U146G the “polymerase ribozyme fitness (log ratio)” value was no more than -4.2. For G50C C54U C103A, the “polymerase ribozyme fitness (log ratio)” value was no more than -4.2. In the case of A52C G94A, the “polymerase ribozyme fitness (log ratio)” value is reported as -0.384. In the case of C51U U56A G71C G84A G140A A142U, the “polymerase ribozyme fitness (log ratio)” value is reported as no more than -4.2. With G50C C57G C95A A115C the “polymerase ribozyme fitness (log ratio)” value was no more than -4.2. With C51U U53A C96G G124U A147U the “polymerase ribozyme fitness (log ratio)” value was -3.84. For G50U A120U C125G, the “polymerase ribozyme fitness (log ratio)” value was -0.502. For C51A C57U U146G, the “polymerase ribozyme fitness (log ratio)” value was -1.67. With G50C A52C C54U G88A C96G the “polymerase ribozyme fitness (log ratio)” value was no more than -4.2. With G50C A52C the “polymerase ribozyme fitness (log ratio)” value was -2.71. For C51U U102G, the “polymerase ribozyme fitness (log ratio)” value was no more than -4.2. With A52C U55A G71C U78A C87G A110C the “polymerase ribozyme fitness (log ratio)” value was no more than -4.2. With G50C A52G U90G G94A G136C the “polymerase ribozyme fitness (log ratio)” value was no more than -4.2. With G50C C87U C103G A121G C123U C125G the “polymerase ribozyme fitness (log ratio)” value was no more than -4.2. With C51U A89C C96U A142U the “polymerase ribozyme fitness (log ratio)” value was -2.78. For C51A A52G C57U C79U C85G G88U C108G A115U, the “polymerase ribozyme fitness (log ratio)” value was no more than -4.2. For A52C U56A U78A U109G A150G, the “polymerase ribozyme fitness (log ratio)” value was no more than -4.2. In the case of C51G G70A G71A C114A A142C U146A, the “polymerase ribozyme fitness (log ratio)” value is reported as no more than -4.2. With A52G C87A A97U A107U G140U the “polymerase ribozyme fitness (log ratio)” value was no more than -4.2. For C51U A73G C96G C123U, the “polymerase ribozyme fitness (log ratio)” value was -0.999. For G50C U104G, the “polymerase ribozyme fitness (log ratio)” value was no more than -4.2. For A52C C96U C103G, the “polymerase ribozyme fitness (log ratio)” value was no more than -4.2. In the case of C51U U56G G88C U102G, the “polymerase ribozyme fitness (log ratio)” value is reported as no more than -4.2. For C51A U53A C54A G81C A122C U134G, the “polymerase ribozyme fitness (log ratio)” value was no more than -4.2. In the case of A52G C105A C123A G133U U144G, the “polymerase ribozyme fitness (log ratio)” value is reported as no more than -4.2. With G50A G84A C95G U146C the “polymerase ribozyme fitness (log ratio)” value was -0.861. For C51G C85U, the “polymerase ribozyme fitness (log ratio)” value was -1.91. With G50A U55A C87G C103U C116G the “polymerase ribozyme fitness (log ratio)” value was no more than -4.2. With G50U C79A C114U U127A the “polymerase ribozyme fitness (log ratio)” value was no more than -4.2. With G50A U55A C95A the “polymerase ribozyme fitness (log ratio)” value was -1.86. In the case of C51A U56A C76G G143A C149G, the “polymerase ribozyme fitness (log ratio)” value is reported as no more than -4.2. In the case of A52G U56A G62C C85U U148A, the “polymerase ribozyme fitness (log ratio)” value is reported as no more than -4.2. With C51U U61A G86C the “polymerase ribozyme fitness (log ratio)” value was -4.06. With A52G C103G A107G G117U the “polymerase ribozyme fitness (log ratio)” value was no more than -4.2. For G50U A52U G84U A89G G92C, the “polymerase ribozyme fitness (log ratio)” value was no more than -4.2. In the case of G50C C57U C79U C85U C149U, the “polymerase ribozyme fitness (log ratio)” value is reported as no more than -4.2. For G50U G70A C93U U104G, the “polymerase ribozyme fitness (log ratio)” value was no more than -4.2. With A52G C75U A110G C129A the “polymerase ribozyme fitness (log ratio)” value was no more than -4.2. In the case of A52G U104G, the “polymerase ribozyme fitness (log ratio)” value is reported as -1.26. For G50A U56C, the “polymerase ribozyme fitness (log ratio)” value was -1.2. In the case of C51U A66U G81A C87G, the “polymerase ribozyme fitness (log ratio)” value is reported as no more than -4.2. In the case of C51U C54U C76A G86A, the “polymerase ribozyme fitness (log ratio)” value is reported as -2.96. With A52C U53G G83C G92U C105U A106C the “polymerase ribozyme fitness (log ratio)” value was no more than -4.2. For G50C C54U C85U C125U, the “polymerase ribozyme fitness (log ratio)” value was -4.17.

From the RNAGym collection of RNA variant scans (doi:10.1073/pnas.2313332121)
